Test results as given in PMC10163214, “E. coli allantoinase is activated by the downstream metabolic enzyme, glycerate kinase, and stabilizes the putative allantoin transporter by direct binding” (Scientific Reports, 2023).
Results are given in words; binding and its absence hold for the method and conditions named. In cells and extracts the contact can be indirect. Some binding calls cover weakened binding; strength is not graded here. Tags and fused reporters may be left off the sequences shown.

B1: His6-tagged putative allantoin transporter YbbW, renamed AllW (AllW-His6) (protein, UniProt P75712 1-484)
chain: MEHQRKLFQQRGYSEDLLPKTQSQRTWKTFNYFTLWMGSVHNVPNYVMVGGFFILGLSTFSIMLAIILSAFFIAAVMVLNGAAGSKYGVPFAMILRASYGVRGALFPGLLRGGIAAIMWFGLQCYAGSLACLILIGKIWPGFLTLGGDFTLLGLSLPGLITFLIFWLVNVGIGFGGGKVLNKFTAILNPCIYIVFGGMAIWAISLVGIGPIFDYIPSGIQKAENGGFLFLVVINAVVAVWAAPAVSASDFTQNAHSFREQALGQTLGLVVAYILFAVAGVCIIAGASIHYGADTWNVLDIVQRWDSLFASFFAVLVILMTTISTNATGNIIPAGYQIAAIAPTKLTYKNGVLIASIISLLICPWKLMENQDSIYLFLDIIGGMLGPVIGVMMAHYFVVMRGQINLDELYTAPGDYKYYDNGFNLTAFSVTLVAVILSLGGKFIHFMEPLSRVSWFVGVIVAFAAYALLKKRTTAEKTGEQKTIG
B2: His-tagged glycerate 2-kinase GlxK overproduced from the ASKA collection (GlxK-His) (enzyme, UniProt P77364 1-381)
chain: MKIVIAPDSFKESLSAEKCCQAIKAGFSTLFPDANYICLPIADGGEGTVDAMVAATGGNIVTLEVCGPMGEKVNAFYGLTGDGKTAVIEMAAASGLMLVAPEKRNPLLASSFGTGELIRHALDNDIRHIILGIGGSATVDGGMGMAQALGVRFLDADGQALAANGGNLARVASIEMDECDPRLANCHIEVACDVDNPLVGARGAAAVFGPQKGATPEMVEELEQGLQNYARVLQQQTEINVCQMAGGGAAGGMGIAAAVFLNADIKPGIEIVLNAVNLAQAVQGAALVITGEGRIDSQTAGGKAPLGVASVAKQFNVPVIGIAGVLGDGVEVVHQYGIDAVFSILPRLAPLAEVLASGETNLFNSARNIACAIKIGQGIKN

Key:
[1] = biological target: T1, FLAG-tagged allantoinase AllB (AllB-Flag), expressed from the chromosomal allB gene under its native promoter (E. coli) (UniProt P77671); assay: co-IP; AllB-Flag precipitated with anti-FLAG magnetic beads (µMACS) from lysate of E. coli DY330; cells treated with 0.7 mM glyoxylate for 2 h; His-tagged prey detected by anti-His blot
T1 sequence: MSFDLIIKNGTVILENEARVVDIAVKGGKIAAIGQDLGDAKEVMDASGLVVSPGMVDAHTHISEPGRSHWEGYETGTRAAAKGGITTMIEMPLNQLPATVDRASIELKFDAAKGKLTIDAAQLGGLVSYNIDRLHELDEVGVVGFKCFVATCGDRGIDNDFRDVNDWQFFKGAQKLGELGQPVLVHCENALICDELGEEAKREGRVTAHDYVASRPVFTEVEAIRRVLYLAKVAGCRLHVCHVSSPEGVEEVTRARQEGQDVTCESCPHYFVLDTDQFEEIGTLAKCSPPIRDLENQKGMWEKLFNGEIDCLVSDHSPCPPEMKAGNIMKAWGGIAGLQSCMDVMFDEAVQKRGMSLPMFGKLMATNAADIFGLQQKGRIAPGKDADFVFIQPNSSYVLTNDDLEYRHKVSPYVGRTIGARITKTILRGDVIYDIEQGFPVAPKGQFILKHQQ

[2] = biological target: T1, FLAG-tagged allantoinase AllB (AllB-Flag), expressed from the chromosomal allB gene under its native promoter (E. coli); assay: co-IP; AllB-Flag precipitated with anti-FLAG magnetic beads (µMACS) from lysate of E. coli DY330; untreated cells (no glyoxylate, no allantoin); His-tagged prey detected by anti-His blot
[3] = biological target: T1, FLAG-tagged allantoinase AllB (AllB-Flag), expressed from the chromosomal allB gene under its native promoter (E. coli); assay: condition: only cells treated with allantoin (2 mM) and not with glyoxylate; co-IP; AllB-Flag precipitated with anti-FLAG magnetic beads (µMACS) from lysate of E. coli DY330; cells treated with 2 mM allantoin for 2 h; His-tagged prey detected by anti-His blot
[4] = biological target: T1, FLAG-tagged allantoinase AllB (AllB-Flag), expressed from the chromosomal allB gene under its native promoter (E. coli); assay: co-IP; AllB-Flag precipitated with anti-FLAG magnetic beads (µMACS) from lysate of E. coli DY330; cells treated with 2 mM allantoin for 2 h; His-tagged prey detected by anti-His blot
[5] = biological target: T1, FLAG-tagged allantoinase AllB (AllB-Flag), expressed from the chromosomal allB gene under its native promoter (E. coli); assay: condition: only cells treated with neither glyoxylate nor allantoin; co-IP; AllB-Flag precipitated with anti-FLAG magnetic beads (µMACS) from lysate of E. coli DY330; untreated cells (no glyoxylate, no allantoin); His-tagged prey detected by anti-His blot

Binder | binding [1] | binding [2] | binding [3] | binding [4] | binding [5]
B1 | binds | no binding (condition: cells not treated with glyoxylate) | no binding |  | 
B2 | binds |  |  | binds | no binding
